Data published in publication PMC4336329 (PLoS ONE, 2015).
In all, about 310,000 compounds went through this assay and about 14,000 (4.5%) showed an effect of 50% or more. The effect is printed as a negative number. Some of the results follow.

The compounds below were run against human ether-à-go-go-related gene (hERG) potassium channel (human, UniProt Q12809) (assay: primary screen, population patch clamp on CHO cells stably expressing hERG).
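Note: peak tail current of the secondary pulse compared with the same well before compound.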

human ether-à-go-go-related gene (hERG) potassium channel, sequence (Q12809 whole entry, looked up): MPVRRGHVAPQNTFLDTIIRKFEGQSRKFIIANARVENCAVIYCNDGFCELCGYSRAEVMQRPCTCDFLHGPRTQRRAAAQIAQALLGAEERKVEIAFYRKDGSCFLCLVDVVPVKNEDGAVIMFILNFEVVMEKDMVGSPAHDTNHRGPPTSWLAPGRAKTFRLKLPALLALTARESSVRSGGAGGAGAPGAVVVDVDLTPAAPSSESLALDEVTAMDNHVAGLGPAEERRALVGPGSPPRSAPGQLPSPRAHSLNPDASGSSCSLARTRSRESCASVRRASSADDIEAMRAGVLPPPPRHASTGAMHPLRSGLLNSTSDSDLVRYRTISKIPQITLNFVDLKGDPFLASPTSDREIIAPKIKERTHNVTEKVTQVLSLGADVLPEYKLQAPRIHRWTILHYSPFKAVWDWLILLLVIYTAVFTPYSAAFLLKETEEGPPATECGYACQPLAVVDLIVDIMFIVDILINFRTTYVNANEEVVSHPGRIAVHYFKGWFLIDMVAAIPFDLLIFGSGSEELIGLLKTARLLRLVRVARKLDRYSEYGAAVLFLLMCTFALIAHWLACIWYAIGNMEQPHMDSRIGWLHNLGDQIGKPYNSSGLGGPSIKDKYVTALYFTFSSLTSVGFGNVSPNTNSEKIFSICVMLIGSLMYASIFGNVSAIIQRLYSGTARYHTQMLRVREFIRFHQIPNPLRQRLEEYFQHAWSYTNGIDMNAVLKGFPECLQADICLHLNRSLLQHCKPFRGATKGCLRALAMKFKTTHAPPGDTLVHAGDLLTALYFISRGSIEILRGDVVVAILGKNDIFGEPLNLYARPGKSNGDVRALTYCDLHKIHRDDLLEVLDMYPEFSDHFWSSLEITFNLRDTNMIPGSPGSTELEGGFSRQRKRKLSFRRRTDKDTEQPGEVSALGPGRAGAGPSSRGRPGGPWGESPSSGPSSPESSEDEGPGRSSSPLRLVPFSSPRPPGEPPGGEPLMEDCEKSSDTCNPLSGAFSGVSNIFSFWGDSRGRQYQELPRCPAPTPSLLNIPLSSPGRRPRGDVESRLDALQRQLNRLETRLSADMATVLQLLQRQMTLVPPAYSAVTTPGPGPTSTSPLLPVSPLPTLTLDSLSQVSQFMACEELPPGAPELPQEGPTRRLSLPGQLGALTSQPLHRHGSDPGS

Row | SMILES | hERG current change (%, negative = inhibition) at 10uM [%]
1 | COc1ccc(Nc2nc(-c3sc(C)nc3C)cs2)c(OC)c1 | 10.4
2 | O=C(CN1CCN(c2ccccc2O)CC1)Nc1ccc2c(c1)OCCCO2 | -7.8
3 | C/C(CCN1CCc2nc(-c3ccccc3)c(-c3ccccc3)cc2C1)=N\OC[C@@H](C)[C@H](OCc1ccccc1)C(C)C | 17.1
4 | Fc1ccc(CN2CCC(Cc3ccccc3)CC2)cc1F | 2.03
5 | O=[N+]([O-])c1cccc(NC(=S)Nc2nc(-c3ccccc3Cl)cs2)c1 | 11.5
6 | CSCCC(NS(=O)(=O)c1ccc(C)cc1)C(=O)NNC(=O)c1csc(N2CCOCC2)n1 (stereo not shown) | 16.9
7 | Cc1cccc(C2c3[nH]c4ccccc4c3CCN2C(=O)CN2CCOC2=O)n1 (stereo not shown) | 7.2
8 | Cc1cccc(N(CC(=O)Nc2c(C)n(C)n(-c3ccccc3)c2=O)S(C)(=O)=O)c1 | 1.12
9 | COC(=O)C1=C(C)n2nnnc2NC1c1cc2ccccc2o1 (stereo not shown) | -14.3
10 | CCOc1cc(C(=S)N2CCOCC2)ccc1OS(=O)(=O)c1ccccc1[N+](=O)[O-] | 8.98
11 | COc1ccccc1NC(=O)c1ccc(NS(C)(=O)=O)cc1 | -21.8
12 | c1ccc(-c2[nH]ncc2-c2nc3ccccc3[nH]2)cc1 | -11
13 | Cc1nc2ccccc2c(=O)n1NC(=O)c1ccccc1Br | 4.82
14 | CC(=O)NCC(=O)OCN1C(=O)c2ccccc2C1=O | 1.31
15 | Cc1cccc(OCCNC(=S)NC(=O)c2cncc(Br)c2)c1 | 16.9
16 | COc1ccccc1-c1coc2c(CN3C(C)CCCC3C)c(O)ccc2c1=O (stereo not shown) | 11.1
17 | CC(C)(C)c1ccc(CSc2cnn(C(C)(C)C)c(=O)c2Cl)cc1 | 18
18 | CSc1ncccc1C(=O)OCC(=O)c1ccc2c(c1)NC(=O)CO2 | 15.3
19 | O=C(CN1CCN(S(=O)(=O)c2ccccc2)CC1)NC(=O)NCc1ccco1 | -11.4
20 | Cc1ccccc1OCC(=O)N/N=C/c1cccc(Oc2ccc([N+](=O)[O-])cc2[N+](=O)[O-])c1 | 5.59
21 | COCCN(CCOC)C(=O)C12CCC(C)(C(=O)C1)C2(C)C (stereo not shown) | -2.02
22 | N/C(=N\OC(=O)c1ccccc1F)c1cccc([N+](=O)[O-])c1 | 16.1
23 | CCOC(=O)CCCCCNC(=O)c1c(O)[nH]c(=O)[nH]c1=O | 17.7
24 | CC12CCC(=O)N1C(C(=O)OCC(=O)Nc1ccc(Cl)c(Cl)c1)CS2 (stereo not shown) | -17.1
25 | O=C(CSc1nc(=O)n2ccccc2n1)NC1CCCCC1 | 7.26
26 | Cc1onc(C(=O)NCCc2ccccc2)c1[N+](=O)[O-] | 6.73
27 | CCOC(=O)C1=C(C)OC(N)=C(C#N)C1c1cc2c(cc1Br)OCO2 (stereo not shown) | -0.548
28 | NS(=O)(=O)c1ccc(CCNC(=O)COC(=O)CCSc2ccc(Cl)cc2)cc1 | -18.5

Row | SMILES | hERG current change (%, negative = inhibition) at 10uM [%]
29 | O=C(COC(=O)Cc1ccc(Cl)cc1)Nc1cc(S(=O)(=O)N2CCOCC2)ccc1N1CCCC1 | -15.8
30 | Cc1nc(Br)c(Br)c(C)c1Br | 14.4
31 | CC(C)(C)NC(=O)C1CC1(c1ccccc1)c1ccccc1 (stereo not shown) | 31.4
32 | CN(C)CCNC(=O)c1cc(Sc2ccc(F)cc2)nc2ccccc12 | -72.5
33 | N#C/C(=C\c1cc([N+](=O)[O-])ccc1Cl)C(N)=O | 25.2
34 | COc1ccc(N(C)S(=O)(=O)c2ccc3c(c2)NC(=O)CC(=O)N3)c(OC)c1 | 14.7
35 | CCOc1cc(CNCCSc2nnnn2C)cc(Br)c1OCc1ccc(F)cc1.Cl | -6.83
36 | CCCNC(=O)C(Cc1ccccc1)NC(=O)c1ccc(-c2ccccc2)cc1 (stereo not shown) | -17.2
37 | O=C(NCc1cccs1)C1CCCN(S(=O)(=O)c2ccc3c(c2)OCO3)C1 (stereo not shown) | -12.7
38 | Cc1cccn2c(=O)c(/C=C(\C#N)C(=O)NC3CCS(=O)(=O)C3)c(N3CCC(C(N)=O)CC3)nc12 (stereo not shown) | 7.15
39 | Cc1ccc(-c2nc(CS(=O)CC(=O)N3CCN(c4ccc(F)cc4)CC3)c(C)o2)cc1 (stereo not shown) | -42
40 | O=C(Cc1ccc2c(c1)OCCO2)Nc1ccc(Cl)c(S(=O)(=O)N2CCOCC2)c1 | -38.3
41 | COc1ccc(NC(=O)CSc2nnc(C3CC3)n2N)cc1 | -0.249
42 | N#Cc1nc(-c2ccccc2F)oc1NCCN1CCOCC1 | 15.2
43 | Nc1ccc(C(CC(=O)O)n2cccc2)cc1 (stereo not shown) | 9.94
44 | O=C(Cn1cncn1)c1ccccc1Br | 24.6
45 | Cc1cc(Br)ccc1SCC(=O)OCC(=O)NCc1ccc2c(c1)OCO2 | 17.5
46 | COc1cc(/C=N/NC(=O)C2CCN(CC(O)COCc3ccccc3)CC2)ccc1O (stereo not shown) | -78.1
47 | CCN(CC)c1ccc(Nc2nc(-c3cccnc3)cs2)cc1 | 17.6
48 | CCCn1c(CC)nc([N+](=O)[O-])c1Sc1ccc(C)cc1 | -0.08
49 | COc1cc2c(cc1OC)CN(C(=O)C1CCCN(C(=O)c3ccc(Cl)cc3)C1)CC2 (stereo not shown) | -8.98
50 | CCC(=NCCC(c1ccccc1)c1ccccc1)c1c(O)[nH]c(=O)[nH]c1=O | -25.8
51 | O=C(NCc1cccnc1)c1c[nH]c2cc3c(cc2c1=O)OCCO3 | 4.87
52 | C=CCSc1nc2sc3c(c2c(=O)n1-c1ccc(C)cc1)CCN(C)C3 | 17.7
53 | CCC(=O)N(Cc1cc(=O)[nH]c2ccccc12)c1ccccc1C | -13.5
54 | O=C1NC2(CCCC2)Oc2ccccc21 | 19
55 | COc1ccccc1C1=NOC(Cn2c(NCCOCCO)nc3c2c(=O)n(C)c(=O)n3C)C1 (stereo not shown) | -3.95
